Some of the results follow.
How the values were obtained:
Assay in all cases: glycan array binding signal (z-score within array); higher = stronger binding
Conditions in all cases: glycan notation: IUPAC condensed, linker removed
[1] = target: GalNAc(b1-4)GlcNAc(b1-2)Man
Summary of the method: (§1)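 The binding signal is a Z-score computed within each array and averaged over linkers. Arrays of the same protein sequence at different concentrations or buffers were also averaged together. Data originate from 3228 arrays in the Consortium for Functional Glycomics database, kept only where the protein sequence was available.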

[2] = target: GalNAc(b1-4)GlcNAc(b1-2)Man(a1-3)[GalNAc(b1-4)GlcNAc(b1-2)Man(a1-6)]Man(b1-4)GlcNAc(b1-4)GlcNAc
Summary of the method: as §1

[3] = target: GalNAc(b1-4)GlcNAc(b1-3)GalNAc(b1-4)GlcNAc
Summary of the method: as §1

GalNAc(b1-4)GlcNAc6S = target: GalNAc(b1-4)GlcNAc6S
Summary of the method: as §1

GalNAc(b1-6)GalNAc = target: GalNAc(b1-6)GalNAc
Summary of the method: as §1

GalNAc3S(b1-4)GlcNAc = target: GalNAc3S(b1-4)GlcNAc
Summary of the method: as §1

GalNAc3S(b1-4)GlcNAc3S = target: GalNAc3S(b1-4)GlcNAc3S
Summary of the method: as §1

[4] = target: GalNAc3S(b1-4)[Fuc(a1-3)]GlcNAc
Summary of the method: as §1

GalNAc4S6S(b1-4)GlcNAc = target: GalNAc4S6S(b1-4)GlcNAc
Summary of the method: as §1

GalNAc6S(b1-4)GlcNAc = target: GalNAc6S(b1-4)GlcNAc
Summary of the method: as §1

Glc(a1-4)Glc = target: Glc(a1-4)Glc
Summary of the method: as §1

[5] = target: Glc(a1-4)Glc(a1-4)Glc(a1-4)Glc
Summary of the method: as §1

Glc(a1-6)Glc(a1-6)Glc = target: Glc(a1-6)Glc(a1-6)Glc
Summary of the method: as §1

[6] = target: Glc(a1-6)Glc(a1-6)Glc(a1-6)Glc
Summary of the method: as §1

Glc(b1-4)Glc = target: Glc(b1-4)Glc
Summary of the method: as §1

Glc(b1-6)Glc = target: Glc(b1-6)Glc
Summary of the method: as §1

GlcA(b1-3)Gal = target: GlcA(b1-3)Gal
Summary of the method: as §1

GlcA(b1-3)GlcNAc = target: GlcA(b1-3)GlcNAc
Summary of the method: as §1

GlcA(b1-6)Gal = target: GlcA(b1-6)Gal
Summary of the method: as §1

[7] = target: GlcA3S(b1-3)Gal(b1-4)GlcNAc(b1-2)Man
Summary of the method: as §1

[8] = target: GlcA3S(b1-3)Gal(b1-4)GlcNAc(b1-3)Gal(b1-4)Glc
Summary of the method: as §1

[9] = target: GlcNAc(a1-3)Gal(b1-4)GlcNAc
Summary of the method: as §1

[10] = target: GlcNAc(a1-4)Gal(b1-3)GlcNAc
Summary of the method: as §1

[11] = target: GlcNAc(a1-4)Gal(b1-4)GalNAc
Summary of the method: as §1

[12] = target: GlcNAc(a1-4)Gal(b1-4)GlcNAc
Summary of the method: as §1

[13] = target: GlcNAc(a1-4)Gal(b1-4)GlcNAc(b1-3)Gal(b1-4)Glc
Summary of the method: as §1

[14] = target: GlcNAc(a1-4)Gal(b1-4)GlcNAc(b1-3)Gal(b1-4)GlcNAc
Summary of the method: as §1

[15] = target: GlcNAc(a1-4)Gal(b1-4)GlcNAc(b1-3)Gal(b1-4)GlcNAc(b1-3)Gal(b1-4)GlcNAc
Summary of the method: as §1

[16] = target: GlcNAc(a1-4)Gal(b1-4)GlcNAc(b1-3)Gal(b1-4)[Fuc(a1-3)]GlcNAc(b1-3)Gal(b1-4)[Fuc(a1-3)]GlcNAc
Summary of the method: as §1

[17] = target: GlcNAc(a1-6)Gal(b1-4)GlcNAc
Summary of the method: as §1

[18] = target: GlcNAc(b1-2)Gal(b1-3)GalNAc
Summary of the method: as §1

[19] = target: GlcNAc(b1-2)Man(a1-3)[GlcNAc(b1-2)Man(a1-6)]Man(b1-4)GlcNAc(b1-4)GlcNAc
Summary of the method: as §1

[20] = target: GlcNAc(b1-2)Man(a1-3)[GlcNAc(b1-2)Man(a1-6)]Man(b1-4)GlcNAc(b1-4)[Fuc(a1-6)]GlcNAc
Summary of the method: as §1

[21] = target: GlcNAc(b1-2)Man(a1-3)[GlcNAc(b1-4)][GlcNAc(b1-2)Man(a1-6)]Man(b1-4)GlcNAc(b1-4)GlcNAc
Summary of the method: as §1

[22] = target: GlcNAc(b1-2)Man(a1-3)[GlcNAc(b1-4)][GlcNAc(b1-2)Man(a1-6)]Man(b1-4)GlcNAc(b1-4)[Fuc(a1-6)]GlcNAc
Summary of the method: as §1

[23] = target: GlcNAc(b1-2)[GlcNAc(b1-4)]Man(a1-3)[GlcNAc(b1-2)Man(a1-6)]Man(b1-4)GlcNAc(b1-4)GlcNAc
Summary of the method: as §1

[24] = target: GlcNAc(b1-2)[GlcNAc(b1-4)]Man(a1-3)[GlcNAc(b1-4)][GlcNAc(b1-2)Man(a1-6)]Man(b1-4)GlcNAc(b1-4)GlcNAc
Summary of the method: as §1

B1: PX9937F-bfa-516-16-516 (Bacteroides fragilis) (protein)
chain: LDIDPTSSIADSNYWKTEAQFSTFNVGLHALLRECSFNFFLLGEPRADIYGDVPFGGEATQGMERLPFNTINKENTGISNFAGMYKVINQINLMIAKTKETTVLSEAGKNYYLGEAYGMRAYLYFHLLRSWGDVILYLDYTNGASLDLSNLSKAASPAEEVMKQIKEDITASEKGFGSDYSFKYGRYYWSMAATQMLKGEVYLWSGRQMGGGTADYTTAKTALQSIVSNANVSLQDDFSKVFAYNNKDNSEIIFSIRNAKDEYNMWDDRFRQNLVPQQAYMTSTYCNKEGVSFKDLPEGQLNGLIRLQIRYDLYNKAFRDGDTRKDASMTAVYQKQQDGTVKYIAPFCNKYQGVLLDGASQRSFLNDYPIYRYADCLLLLAEAKALLGEDPTAEINQVRERAYGKEFFEANKATLAYPNDKGDFYTDNKYMSGDEDPLEAILKERMREFMFEGKRWYDLRLLGADYVTKRTSAVATRLLWPINESVLTDNPALKQTPGYQN
With B1 the “glycan array binding signal (z-score)” value [1] was -0.282, the “glycan array binding signal (z-score)” value [2] was -0.08 and the “glycan array binding signal (z-score)” value [3] was -0.204. For the same binder, the “glycan array binding signal (z-score)” value (GalNAc(b1-4)GlcNAc6S) was 0.396, the “glycan array binding signal (z-score)” value (GalNAc(b1-6)GalNAc) was 0.011 and the “glycan array binding signal (z-score)” value (GalNAc3S(b1-4)GlcNAc) was 0.111. The “glycan array binding signal (z-score)” value (GalNAc3S(b1-4)GlcNAc3S) was -0.23, the “glycan array binding signal (z-score)” value [4] was -0.062 and the “glycan array binding signal (z-score)” value (GalNAc4S6S(b1-4)GlcNAc) was -0.262. The “glycan array binding signal (z-score)” value (GalNAc6S(b1-4)GlcNAc) was -0.033, the “glycan array binding signal (z-score)” value (Glc(a1-4)Glc) was -0.063 and the “glycan array binding signal (z-score)” value [5] was -0.25. For the same binder, the “glycan array binding signal (z-score)” value (Glc(a1-6)Glc(a1-6)Glc) was -0.023, the “glycan array binding signal (z-score)” value [6] was -0.212 and the “glycan array binding signal (z-score)” value (Glc(b1-4)Glc) was -0.077. For the same binder, the “glycan array binding signal (z-score)” value (Glc(b1-6)Glc) was -0.126, the “glycan array binding signal (z-score)” value (GlcA(b1-3)Gal) was -0.361 and the “glycan array binding signal (z-score)” value (GlcA(b1-3)GlcNAc) was -0.198. For the same binder, the “glycan array binding signal (z-score)” value (GlcA(b1-6)Gal) was -0.451, the “glycan array binding signal (z-score)” value [7] was -0.366 and the “glycan array binding signal (z-score)” value [8] was 0.04. The “glycan array binding signal (z-score)” value [9] was -0.31, the “glycan array binding signal (z-score)” value [10] was -0.371 and the “glycan array binding signal (z-score)” value [11] was 0.087. For the same binder, the “glycan array binding signal (z-score)” value [12] was -0.276, the “glycan array binding signal (z-score)” value [13] was -0.323 and the “glycan array binding signal (z-score)” value [14] was -0.389. The “glycan array binding signal (z-score)” value [15] was -0.359, the “glycan array binding signal (z-score)” value [16] was 0.511 and the “glycan array binding signal (z-score)” value [17] was -0.345. The “glycan array binding signal (z-score)” value [18] was -0.311, the “glycan array binding signal (z-score)” value [19] was -0.224 and the “glycan array binding signal (z-score)” value [20] was -0.054. For the same binder, the “glycan array binding signal (z-score)” value [21] was 0.059, the “glycan array binding signal (z-score)” value [22] was -0.363 and the “glycan array binding signal (z-score)” value [23] was -0.247. For the same binder, the “glycan array binding signal (z-score)” value [24] was -0.144.
